Molecules are shown by their SMILES. A structure can be active in one record and inactive in another.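 Compound tested at a single concentration for 48 hours in 96-well plates; a percent growth value below 10 was scored as active.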 Some entries of the source have several records that differ or are many. This list holds those alone. There may be further records. The screen tested this drug many times, at the concentration stated with the values; one value stands for one run. Brackets with × count equal records among those shown.

The test system of the test is SF-295 CNS. The experiment in a line: NCI-60 one-dose screen, 48 h (100 = growth as untreated, 0 = no growth, -100 = all killed).

`COc1cccc2c1C(=O)c1c(O)c3c(c(O)c1C2=O)C[C@@](O)(C(=O)CO)C[C@@H]3OC1CC(N)C(O)C(C)O1` (stereo not given in full): the growth entry by setting is: (0.25 µM, runs of 2018) “inactive: 26.9, 25.6, 36.9 (3×), 17.9, 21.1, 27.7, 22.4, 23.8, 30.8 (2×), 30.5 (2×), 35.9, 34, 35.6, 34.7 (2×), 33.7, 25.5, 31.7, 18, 23.7, 26, 35, 33, 25.7, 29.9, 28.2, 55, 52.9, 24.8 (2×), 27.4, 31, 37.3, 37.1 (2×), 34.6, 41.1, 38.6, 19.6, 16.9, 21.4, 21.7, 26.7, 32.4, 30.2, 38.2, 35.7, 40.5, 45.6, 49.5, 10.7, 27.9%”; (0.25 µM, runs of 2019) “inactive: 19.6 (3×), 21.7 (3×), 30.2, 13.2, 17.3 (2×), 21.6 (2×), 17.1, 20.4, 20.9, 23.9, 23, 23.6 (2×), 20.5, 12.6, 15.6, 12.4, 19.4, 20.8 (2×), 15.1, 13.1, 19.1 (2×), 28.2, 19, 16.8, 23.4, 23.7, 27, 23.5, 20.2, 23.3, 25.4, 21.1, 12.9, 12.3% and active: 5.84%”; (0.25 µM, runs of 2020) “inactive: 13.4, 15.3, 18.6, 19, 42.9, 21.3, 32 (2×), 19.1, 11.5, 18.5, 22.3, 28.2, 32.4, 46.1, 28.3, 29.6, 26.5, 25, 30.8, 24.8, 30%”; (0.25 µM, runs of 2021) “inactive: 29.9, 43.6, 31.8, 27.9, 27.4, 23.3, 27.5, 17.8, 17.1, 17.7, 22.4, 21.4 (2×), 26.4 (2×), 16.6, 14.5 (2×), 19.5 (2×), 18.9, 23.4, 20.3, 22.7, 19.4, 22.3, 29.6, 32 (2×), 24.8 (2×), 17.9 (2×), 27, 18.4, 34.3, 29.8, 26, 23.7, 20.5, 25.7, 14.8, 21.2, 11.1, 32.8, 45.7, 11.3, 10.2, 24.5, 21.3, 20.4%”; (0.25 µM, runs of 2022) “active: 2.13, 1.99, -4.12, 9.46, 8.18, 7.81% and inactive: 15.4, 10.7, 14.1, 15.7, 27.3, 36.5, 13, 19.5, 21.1, 19, 22.8, 10.2, 52.4, 55, 26, 51.6, 52, 85.4, 23.7, 26.9, 27.7, 22%”; (25 µM, runs of 1991) “active: -88.8, -98.2, -59.3, -73.4, -94.6, -94.8, -40.8, -24.5, -39.4, -100, -91.8, -35.8, -35.4, -33.8, -43.5, -55, -44.5, -44.7, -44.4%”. In addition, the growth entry is “active: -49.9, -47.8, -43.6, 4.07, -46.2, -57, -40.5, -59.5, -68, -38.8 (2×), -35.6, -39.1, -13.9, -25.2, -52.8, -57.9, -63.3, -71.2, -67.5, -59.7 (2×), -10.5, -56.8, -44.4, -35.2, -62.1, -21.1, -28.8, -76.6, -47.7, -41.4, -55.1, -49, -46.4, -37.9, -21, -61.4, -59.1 (2×), -78, -45.8, -21.2, -24.4, -25, -18.8, -16.3, -33.7, -23.5, -3.12, -19.7, -25.3, -64.4, -50.4, -12.4, -28, -13.4, -30.6, -24.3, -24.6, -63.1 (2×), -72.6, -78.3, -81.7, -87.6, -36.4, -1.4, -23.7, -27.4, -40.2, -28.2, -41.7, -41.1, -57.2, -52.3, -48.8 (2×), -51.5, -47.4, -51.8, -54.5, -31.7, -46.5, -66.4, -65.7, -59.8 (2×), -50.3, -81.4, -15.4, -36, -38.4, -25.6, -51.4, -44.2, -53.4, -60.5, -17.5, -17.7, -42.4, -54.7, -56.2, -60.1, -55.7, -49.4, -40.3, -62%” (25 µM, runs of 1992); “active: -51.8, -49.8, -14.5, -25.5, -59.3, -21.1, -55.1, -35.5, 0.421, -25.3, -55.7, -52.3, -62.2, -27.1, -39.9, 4.77, -20.3, -59.7, -67.3, -53.3, -0.268, -4.51, -18, -7.55, -57.7, -62.9, -78.2, -17.7, -62.1, -57.1, -51.9, -4.26, -57.5, -32, -37, -48.7, -51.5, -63.6, -54.7, -28.9, -60.7, 4.07, -29.9, -45%” (25 µM, runs of 1993); “inactive: 13.2%, 101% and active: -70.5, -22.3, -48.9 (2×), 2.45, -47.7, -46.1, -3.59, -15.3, -15.2, -66.9, -11.4, -16.1, -15.1, -6.87, -74.6, -14.7, -24.9, -38.4, -40.2, 7.03, -11, -42.2, -12.9, -25.3, -17.7, -48.4, -19.9%” (25 µM, runs of 1994); “active: -31, -19.2, -39.8, 3.18, -33.3, -15.9, -18.1, -15.5, -3.79, -23.4, 3.27, -7.81, -12.1 (2×), -11.5, -34.3, -28.9, -47.6, -44.4, -43.6, -55.8, -3.14, -8.06, -42.6, -32.8, -42.1, -42.4, -23.2, 3.93, -51.2, -64, -53.7, -67.3, -46.9, -39.2, -69.2, -50% and inactive: 10.9%” (25 µM, runs of 1995); “active: -49.7, -36.8, -58.9, -5.78, -10.1, -47.6, -20.5, -6.3, -41, -40, -56, -38.8, -32.1, -42.7, -13.2, -9.13, -48.7, -20, -7.03, -5.24, -27.1, -7.31, -10.5, -9.03, -25.7, -50.6, -21.8, -85.5, -56.4, -2.45, -50.2, -41.6, -34.5, -20.2, -58.4, -36, -68.4, -61.4, -61.3, -37.9, -26.5, -34.4, -29.3, -52.8, -39.5, -23.1, -46.3, -45.4, -17.8, 7.97, -29.2, -34.8, -61.5, -23.9, -56.2, -57.9% and inactive: 92.9%, 40.7%” (25 µM, runs of 1996); “active: -25.7, -36.7, -58.1, -48.1, -32.4, -67.9, -64.3, -34.8, -68.5, -60, -27, -51.4, -56, -27.1, -41.4, -42.9, -76.3, -82.5, -18.5, -65, -54.4, -49.4, -70.2, -33.5, -48.4, -66.2, -49.5, -7.3, -25.9, -32.7, -67.4, -72.9, -67.2, -69.7, -45.9, -66.6, -49.2, -32, -20.3, -58.6, -51.9, -40.4, -39.8%” (25 µM, runs of 1997). Besides, the growth entry is given as “active: -33.9, -31.3, -18.4, -27.5, -45.3, -48.4, -55, -46.4, -69.4, -39.7, -50.2, -80.4, -71.5, -3.59, -29.6, -31.4, 4.02, -58.4, -22.8, -35.4, -35.8, -3.06, -16, -1.53%” (25 µM, runs of 1998); “active: -32.1, -37.2, 6.04, -0.743, -16.2, -11.8, -17.4, 1.86, -51.4, -4.55, -41.7, -96.7, 5.41, 0.496, 5.94, -100, -68.2, -80.5%” (25 µM, runs of 1999); “active: -2.86, -100, -47.8, -43.1%” (25 µM, runs of 2000).

These data come from PubChem BioAssay (NCI).
